# In the supplement of paper PMC12217912:
# This is one part of the list. The full chains were built here from the parent and the listed change. Values near 0.05 are background.
# B1: TEV protease; numbered along this chain (parent)
# chain: MGESLFKGPRDYNPISSSICHLTNESDGHTTSLYGIGFGPFIITNKHLFRRNNGTLVVQSLHGVFKVKDTTTLQQHLVDGRDMIIIRMPKDFPPFPQKLKFREPQREERICLVTTNFQTKSMSSMVSDTSCTFPSGDGIFWKHWIQTKDGQCGSPLVSTRDGFIVGIHSASNFTNTNNYFTSVPKNFMELLTNQEAQQWVSGWRLNADSVLWGGHKVFMVKPEEPFQPVKEATQL
# Variants of: B1
# Test: raw area under fraction-flipped curve 0-4 h after induction (AUC4h, not background-subtracted), DNA-recorder readout of cleavage of the substrate (dimensionless); higher = more cleavage of the substrate by the protease variant
# Conditions: temperature: 34 °C; time window: 0-4 h after rhamnose induction
# Method: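 In vivo DNA recorder in E. coli TOP10(DE3) ΔrhaA at 34 °C. Each TEVp single-site mutant (parent TEVp 0) is paired with a single-site variant of the 7-mer TEVs (canonical ENLYFQ|S). The substrate sits between flexible linkers in a Bxb1-sfGFP-TEVs-SsrA fusion, so cleavage stabilises Bxb1 and speeds flipping of a recombination array, read by NGS. The value is the raw area under the fraction-flipped curve over 0-4 h after rhamnose induction (AUC4h), with ≥20 reads per time point. It is not background-subtracted; inactive controls average about 0.047.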
# 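Also: Bxb1 expression induced with 0.2% (w/v) L-rhamnose at OD600 near 0.5, cultures sampled hourly, flipped fraction per protease–substrate barcode pair counted by paired-end Illumina sequencing.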
Variant,area with substrate CNLYFQS,area with substrate DNLYFQS,area with substrate HNLYFQS,area with substrate INLYFQS,area with substrate KNLYFQS,area with substrate MNLYFQS,area with substrate PNLYFQS,area with substrate SNLYFQS,area with substrate TNLYFQS,area with substrate VNLYFQS,area with substrate WNLYFQS,area with substrate GNLYFQS,area with substrate LNLYFQS,area with substrate NNLYFQS,area with substrate QNLYFQS,area with substrate RNLYFQS,area with substrate YNLYFQS,area with substrate FNLYFQS
V220M,0.07,0.0736,0.0652,0.0633,0.0727,0.0571,0.0641,0.0667,0.0569,0.0826,0.0578,–,–,–,–,–,–,–
V220W,0.0484,0.0709,0.0645,0.0535,0.0583,–,0.0356,0.0448,0.0665,0.0351,0.0572,0.0527,0.056,0.0715,0.0516,0.0715,0.0665,–
K221F,0.055,0.0603,0.059,0.062,0.06,0.0715,0.0607,0.0515,0.06,0.0561,0.0563,0.0428,–,0.0773,0.0589,–,0.043,–
P222D,0.0667,0.0762,0.0518,0.0606,–,0.0711,0.0524,–,0.0595,–,0.0566,–,0.0643,–,–,–,0.0661,0.0494
P222F,0.0678,0.0712,0.0622,0.0616,0.0691,0.0652,0.063,0.051,0.056,0.058,0.0605,0.0585,0.0674,0.0562,0.0474,–,0.0574,–
E223I,0.0578,0.0757,–,0.063,–,0.0643,0.0578,0.0578,0.0615,–,–,–,–,–,–,–,0.0594,–
E223K,0.0442,0.0802,0.069,0.0573,0.0636,–,0.0728,0.0612,0.0713,–,0.0599,–,0.0854,0.0565,0.0618,0.0605,0.0641,0.0616
F226H,0.0666,0.109,0.0675,0.0642,0.0695,0.0643,0.0685,0.0741,0.0696,–,0.0463,0.0453,0.0662,0.0517,–,0.0783,0.0617,0.0644
F226M,0.0709,0.0685,0.0632,0.103,0.0686,0.0647,0.0633,0.0665,0.0636,–,0.0589,–,0.0578,0.0659,–,–,0.0573,–
F226N,0.0635,0.0695,0.0606,–,0.0664,–,0.0653,0.091,0.0577,0.0561,0.044,0.0685,0.0693,0.0444,0.0402,0.0468,0.0614,–
Q227K,0.0524,0.0671,0.0737,0.0174,0.0735,0.0799,0.0767,0.064,0.0485,–,0.059,0.0683,–,0.0604,0.0707,–,0.0625,0.0501
Q227L,0.0628,0.0934,0.0615,0.0564,0.022,0.0683,0.0651,0.0743,0.0644,0.0603,0.0651,0.0717,–,–,–,–,0.0709,0.0674
Q227V,0.0753,0.0791,0.0662,–,0.0798,0.06,0.0643,–,0.0658,0.0608,0.0563,0.0493,0.0698,–,0.0835,–,–,0.0647
V229C,0.0381,0.106,0.0575,0.0677,0.0631,0.0726,0.0702,–,0.0635,0.0519,0.0545,0.0706,0.0564,0.0669,–,0.0542,0.0539,0.0505
V229F,0.0648,0.0653,0.061,0.0559,–,–,0.0643,0.0639,0.062,0.0419,0.0595,0.0556,0.0615,0.0493,–,0.0532,0.0652,0.0462
K230C,0.0686,0.0831,0.0702,0.0552,–,0.0731,0.0693,0.0719,0.0709,–,0.053,–,0.0621,–,–,–,0.052,–
K230D,0.0558,0.0721,0.0729,–,0.0747,0.0708,0.0626,0.0705,0.113,0.0643,0.0587,0.0677,0.0831,0.071,0.0705,–,0.0594,0.0608
K230N,0.0534,0.077,0.053,0.0443,0.0684,0.0284,0.078,0.0708,0.0945,0.0642,0.0562,–,–,0.0602,0.0661,–,–,0.0645
E231C,0.0731,0.0658,–,0.049,0.0669,0.0658,0.0718,0.0609,0.0632,–,0.0636,0.0662,0.0718,–,–,–,0.062,0.0463
Q234N,0.0553,0.0724,0.0644,0.0646,0.0593,0.0644,0.0793,0.0649,0.0751,–,0.0647,0.069,0.0971,0.0578,–,0.0741,0.0699,–
Q234W,0.0747,0.0973,0.09,0.0703,–,–,0.0697,0.063,0.0549,0.0651,0.0601,0.068,0.0754,0.0673,–,0.0472,0.0567,–
